Laboratory results taken from PubChem BioAssay AID1347120 (National Center for Advancing Translational Sciences (NCATS), 2019).
The whole screen tested about 390,000 compounds, of which about 930 (0.24%) were called active. Inconclusive means that the source gave no clear call. Such entries were picked first, then a sample of the others. Calls follow the shape of the dose curve; as a rule, active = well fitted activation curve with a large enough effect; inconclusive = small, poorly fitted or top-dose-only effect; inactive = no such curve, though single readings can be large or run the other way. A potency beside an inconclusive call is a rough fit, not a confirmed value.

assay: qHTS for Suppressors of FUS Proteinopathy: Primary screen using FUS-linked yeast assay; also: nearly all actives have a fitted effect of over 55% in size;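 as to growth rescue (activation): plate controls were DMSO vehicle for no effect and reference control for full effect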; conditions: S. cerevisiae FUS-expressing, OD600, 24 h; Potency: growth rescue; growth rescue (activation): at 76.6 µM (top of the series)
Description: Several widespread neurodegenerative diseases, including Alzheimer disease, Huntington disease, Frontotemporal Lobar Degeneration (FTLD) and Amyotrophic Lateral Sclerosis (ALS), share a common pathological feature, namely accumulation of specific protein aggregates in diseased tissue. These diseases which is associated with protein misfolding (proteinopathies) have become increasingly problematic as the population ages and life expectancies are extended. Most proteinopathies are currently incurable, a situation confounded by the fact that the basis of neurodegeneration is generally poorly understood. There exists urgent and significant need to find therapeutics that can inhibit the toxicity associated with protein aggregation. A novel approach to understand the underlying mechanisms of neurodegenerative diseases has recently emerged in which the disease conditions are modeled in the yeast (Saccharomyces cerevisiae), a tractable eukaryotic organism with conserved protein quality control mechanisms. Yeast offers quick and reliable genetic manipulations and can be easily tailored to high-throughput screening (HTS).
For this project, a yeast model of the FUS proteinopathies (a spectrum of neurodegenerative diseases that include ALS and a subtype of FTLD) was generated and employed. The cytoplasmic accumulation of the DNA/RNA-binding protein FUS (also known as TLS) is causative to both familial and sporadic forms of ALS and FTLD. This yeast model recapitulates neuronal pathology by showing severe cytotoxicity associated with cytoplasmic accumulation of FUS aggregates and a specific interaction between FUS and TDP-43, another ALS-associated protein. […] Specifically, the cellular accumulation of misfolded FUS that disrupts RNA homeostasis in both yeast and higher eukaryotes. This model was validated to be suitable for quantitative HTS (qHTS) use for finding genetic or chemical factors that restore growth. […] Identified compounds that inhibits FUS-yeast toxicity is flagged, re-acquired, and validated for further investigation and optimization.
NIH Chemical Genomics Center [NCGC]
NIH Molecular Libraries Probe Production Centers Network [MLPCN]
Assay Submitter (PI): Frank Shewmaker PhD, Uniformed Services University of the Health Sciences
Compound CP55940 was used as the positive control. Column 1 was treated with CP55940 titration from 92uM (final concentration, 1:2 dilution), while Column 2 was treated with top dose 92uM. Columns 3 and 4 were treated with DMSO only as negative control to assess background and noise signal.
Four hundred fifty microliter of cultured yeast (in 20mL rich medium) provided by Dr. Shewmaker lab was incubated at 30C at 99% humidity for 3hr. The culture was then spun down at 4000rpm for 5min and the cell pellet was resuspended in 2mL of Sdmin Media + ALU(330) + 2.5% Raffinose. One hundred microliter of the suspension was added to 900uL of water and OD of the solution was obtained. Twenty mL of responding medium (provided by Shewmaker lab) + 2.5% raffinose was added to ensure cell density of 0.1; the solution was incubated overnight. Working cell solution (FUS-yeast in Sdmi + Sdmi + 1X ALU + 2% galactose media) was prepared (final OD at 0.005) and 3uL was dispensed in a 1536-well Aurora high based clear bottom assay plates. Controls and library compounds (at various final concentrations from 40uM to 0.32uM) were added using a 1536-well pin array using the Kalypsys pin-tool. The plates were then incubated for 24hrs in a cell-culture incubator (30C; 99% humidity). Absorbance at 600nm was then read using the PerkinElmer ViewLux plate reader.
Potency is read from the fitted curve at half-maximal effect; tags tell the direction and shape of the fitted curve.

| Compound | growth rescue (activation) | Potency |
| --- | --- | --- |
| CC1=C(C)C(=O)C(CCCCC#CCCCC#CCO)=C(C)C1=O | inactive: 27.6% | – |
| CCCc1nnc(NC(=O)CCC(=O)NCCc2ccc(OC)c(OC)c2)s1 | – | inconclusive: 11.2 µM [activator, single point] |
| COc1ccc(Br)cc1CNC(=O)CCCn1c(=O)c2cccn2c2ccccc21 | inactive: 24.1% | – |
| Cc1cc(C)c(/C=C(\C#N)C(N)=S)c(C)c1 | inactive: -24.1% | – |
| CC(C)(C)OC(=O)N1CCC(c2c(C(=O)NCc3ccc4c(c3)OCO4)cnn2-c2ccc(F)cc2F)CC1 | – | inconclusive: 28.2 µM [activator, single point] |
| O=C(Nc1ccc(Cl)cc1)C1CCN(c2nc3ccccc3n3cccc23)CC1 | – | inconclusive: 50.1 µM [activator, single point] |
| O=C(CCS(=O)(=O)c1cc2c(cc1Br)CCN2C(=O)C1CC1)N1CCN(c2ccccn2)CC1 | inactive: 3.83% | – |
| CN(Cc1ccccc1)C(=O)c1ccc(NC(=O)Cc2ccc(NC(=O)C3CCCN(S(=O)(=O)c4cccc([N+](=O)[O-])c4)C3)cc2)cc1 (centres undefined) | – | inconclusive: 12.6 µM [activator, partial curve, poor fit] |
| CCCC[C@H](C(=O)N(C)c1cccc(OC)c1)[C@@H](O)c1ccc(C(C)=O)cc1 | inactive: 31.9% | – |
| N#Cc1c(NC(=O)c2cccc(S(=O)(=O)Nc3ccc(C(=O)O)cc3)c2)sc2c1CCCC2 | – | inconclusive: 14.1 µM [activator, partial curve, poor fit] |
| CCOC(=O)C1CCCN(C(=O)c2ccc3c(c2)N(Cc2ccccc2)C(=O)c2ccccc2S3(=O)=O)C1 (centres undefined) | – | inconclusive: 20 µM [activator, single point] |
| CC(C(=O)Nc1cccc(C#N)c1)n1nc(-c2ccccc2)c2c(c1=O)CCCC2 (centres undefined) | – | inconclusive: 15.8 µM [activator, partial curve, poor fit] |
| CCCCN1C(=S)NC[C@@H]1Cc1cccc2ccccc12 | – | inconclusive: 14.1 µM [activator, partial curve, poor fit] |
| Cc1nc2c(-c3ccc(F)cc3)cnn2c(N)c1-c1ccccc1 | inactive: 37% | – |
| Cc1nn(C)c(C)c1CN(C)C(=O)c1cnn2c1NC(c1ccccc1)CC2C(F)(F)F (centres undefined) | – | inconclusive: 25.1 µM [activator, partial curve, poor fit] |
| CCOc1ccccc1-c1nc(C(N)=O)c2[nH]c(=O)n(-c3cccc(C)c3)c2n1 | – | inconclusive: 20 µM [activator, single point] |
| COc1cc(C(=O)Nc2nc(-c3cccs3)cs2)cc(OC)c1OC | inactive: 14.8% | – |
| COc1ccccc1N1CCN(C(=O)c2ccc(CS(=O)c3ccccc3C)o2)CC1 (centres undefined) | inactive: 14.9% | – |
| O=C(NCc1cccc(Cl)c1)c1cc2c(s1)-c1ccccc1OC2 | – | inconclusive: 11.2 µM [activator, single point] |
| O=C(CN1C(=O)COc2ccc(S(=O)(=O)N3CCCCCC3)cc21)NCc1ccc(Cl)cc1 | – | inconclusive: 22.4 µM [activator, partial curve, poor fit] |
| O=C(Cn1cnc2c(cnn2-c2ccccc2)c1=O)Nc1cc(S(=O)(=O)N2CCOCC2)ccc1Cl | – | inconclusive: 20 µM [activator, partial curve] |
| CC(C)(C)n1nnnc1C(c1cccs1)N(Cc1cccnc1)Cc1ccccc1Cl (centres undefined) | – | inconclusive: 28.2 µM [activator, single point] |

| Compound | growth rescue (activation) | Potency |
| --- | --- | --- |
| CCCCCCCCCCCCCCCC[N+](C)(C)CCN(Cc1ccc(OC)cc1)c1ncccn1 | – | inconclusive: 15.8 µM [activator, partial curve, poor fit] |
| CCCn1c2ccccc2c2nnc(SCC(=O)Nc3nnc(CC(=O)OCC)s3)nc21 | – | inconclusive: 10 µM [activator, partial curve] |
| O=C(c1cc(-c2ccc(Cl)cc2Cl)on1)N1CCOCC1 | inactive: 5.32% | – |
| CC1(C)CC(N2CCN(CCO)CC2)=CC(=S)N1 | inactive: -13.5% | – |
| O=C(NC1CCCCC1)C(c1ccc(-c2ccccc2)cc1)n1c(=O)c(-c2ccco2)nc2ccccc21 (centres undefined) | – | inconclusive: 3.55 µM [activator, full curve, poor fit] |
| Cc1cn2c(=O)cc(COc3cccc(NC(=O)c4ccccc4C)c3)nc2s1 | inactive: -12.1% | – |
| COc1ccc(NC(=O)C2CCN(S(=O)(=O)c3ccc4[nH]c(=O)ccc4c3)CC2)c(OC)c1 | inactive: -15.9% | – |
| CC(=O)N1CCOc2cc(S(=O)(=O)Nc3cccc(C(F)(F)F)c3)c(Cl)cc21 | – | inconclusive: 2.51 µM [activator, full curve] |
| COC(=O)c1c(C)oc2ccc(N(C(=O)c3ccncc3)S(=O)(=O)c3ccc(C)cc3C)cc12 | – | inconclusive: 11.2 µM [activator, single point] |
| Cc1cc(C)c2nc(-c3ccncc3)cc(C(=O)N3CCN(Cc4ccccc4Cl)CC3)c2c1 | – | inconclusive: 31.6 µM [activator, single point] |
| CCC(=O)c1cc(Br)ccc1OCC(=O)N1CCN(S(=O)(=O)c2ccccc2)CC1 | – | inconclusive: 28.2 µM [activator, single point] |
| COc1cccc(NC(=O)c2ccc(N3C(=O)C4CC=CCC4C3=O)cc2)c1 (centres undefined) | inactive: 13.6% | – |
| CC(C(=O)N1CCc2ccccc21)n1cnc2c1c(=O)n(C)c(=O)n2C (centres undefined) | inactive: 4.15% | – |
| COc1ccc(CCNC(=O)CSC(=O)c2ccccc2)cc1OC | – | inconclusive: 28.2 µM [activator, single point] |
| CCC1NC(=O)c2cccnc2-n2c1nc1cc(F)ccc1c2=O (centres undefined) | inactive: -30.7% | – |
| COc1cc(/C=C/C(=O)Nc2ccc(S(=O)(=O)Nc3ncccn3)cc2)ccc1OCC#N | – | inconclusive: 44.7 µM [activator, single point] |
| CCCCSCCCNC(=O)CN1C(=O)c2cccnc2Oc2ccc(Cl)cc21 | – | inconclusive: 50.1 µM [activator, single point] |
| COC(=O)c1ccccc1NC1OC(=O)c2ccccc21 (centres undefined) | inactive: -16% | – |
| Cc1cc(NS(=O)(=O)c2ccc(NC(=O)CCc3ccccc3)cc2)no1 | inactive: -27.1% | – |
| CCN(CC)S(=O)(=O)c1ccc(N2CCCCC2)c(NC(=O)/C=C/c2ccc(OC)c(OC)c2)c1 | – | inconclusive: 7.94 µM [activator, partial curve] |
| COc1cccc(N2CCN(C(=O)C(CCSC)NS(=O)(=O)c3ccc4c(c3)oc(=O)n4C)CC2)c1 (centres undefined) | – | inconclusive: 39.8 µM [activator, single point] |
| COc1ccccc1-c1sc2cc3c(cc2c1C#CCO)OCO3 | – | inconclusive: 50.1 µM [activator, single point] |

| Compound | growth rescue (activation) | Potency |
| --- | --- | --- |
| CN(Cc1c(F)cccc1Cl)C(=O)c1ccc2ccccc2n1 | inactive: 7.36% | – |
| CN(Cc1cccs1)C(=O)CCc1c[nH]c2ccccc12 | – | inconclusive: 12.6 µM [activator, partial curve] |
| CCOC(=O)C1=C(c2ccccc2)N=C2SCC(=O)N2C1c1ccc(OC)c(OC)c1 (centres undefined) | – | inconclusive: 28.2 µM [activator, single point] |
| OC(c1ccccc1)(c1nc(-c2ccc(F)c(Cl)c2)cs1)C(F)(F)F (centres undefined) | inactive: 8.52% | – |
| CC(C)C[C@H](NC(=O)c1nc[nH]c1C(=O)N[C@@H](CCCCNC(=O)OC(C)(C)C)C(=O)OC(C)(C)C)C(=O)OC(C)(C)C | – | inconclusive: 5.01 µM [activator, full curve, poor fit] |
| COC(=O)c1[nH]c2ccc(C)cc2c1NC(=O)CN1CCCc2ccccc21 | – | inconclusive: 28.2 µM [activator, partial curve, poor fit] |
| CC1Cc2ccccc2N1C(=O)COC(=O)Cn1cnc2ccccc2c1=O (centres undefined) | – | inconclusive: 20 µM [activator, partial curve] |
| COCCCNC(=S)NNC(=S)NCCCOC | inactive: 33.1% | – |
| COc1c(C)cc(S(=O)(=O)NCCc2c(C)[nH]c3ccccc23)c(C)c1C | inactive: 39% | – |
| CCOC(=O)c1cc(-c2ccccc2)n(-c2cccc(C(=O)Nc3ccc(F)c(F)c3)c2)c1C | – | inconclusive: 22.4 µM [activator, partial curve, poor fit] |
| COc1cc(/C=N/NC(=O)c2cc(-c3ccccc3)nc3ccccc23)ccc1O | – | inconclusive: 25.1 µM [activator, partial curve, poor fit] |
| Cc1ccc(Cc2c(-c3ccccc3)nc3ccc(Cl)cn23)cc1 | – | inconclusive: 31.6 µM [activator, single point] |
| CCOc1ccc(NC(=O)CNC(=O)c2cn(-c3ccccc3OC)c(=O)c3ccccc23)cc1 | – | inconclusive: 50.1 µM [activator, single point] |
| O=C(Nc1c(F)cccc1F)c1cnc(N2CCN(c3ccccn3)CC2)c2ccccc12 | inactive: 13.8% | – |
| COc1ccc(NC(=O)Nc2ccc3c(c2)C(=O)N([C@H](C)CO)C[C@H](C)[C@@H](CN(C)C(=O)Nc2ccc(C(F)(F)F)cc2)O3)cc1 | – | inconclusive: 35.5 µM [activator, single point] |
| CCCS(=O)(=O)c1c(S(=O)(=O)CCC)c2c(N)cccn2c1C(=O)c1ccc(Br)cc1 | – | inconclusive: 12.6 µM [activator, partial curve, poor fit] |
| COCCCNc1nc2ccccc2nc1NS(=O)(=O)c1ccc(Cl)cc1 | inactive: -13.6% | – |
| CN(/N=C/c1ccc(O)cc1O)c1nc(-c2ccccc2)cc(-c2ccccc2)n1 | – | inconclusive: 39.8 µM [activator, partial curve, poor fit] |
| Cc1ccc2c(Sc3ccc(Cl)cc3)c(C(=O)N3CCCCC3)[nH]c2c1 | – | inconclusive: 50.1 µM [activator, single point] |
| CC(C)(C)c1ccc(OCCC(=O)OCC(=O)NC2CCS(=O)(=O)C2)cc1 (centres undefined) | inactive: -0.638% | – |
